First the molecules themselves.
T1: UNK ZnF1-6 (called full-length) (human, UniProt Q9C0B0 30-357)
T1 sequence: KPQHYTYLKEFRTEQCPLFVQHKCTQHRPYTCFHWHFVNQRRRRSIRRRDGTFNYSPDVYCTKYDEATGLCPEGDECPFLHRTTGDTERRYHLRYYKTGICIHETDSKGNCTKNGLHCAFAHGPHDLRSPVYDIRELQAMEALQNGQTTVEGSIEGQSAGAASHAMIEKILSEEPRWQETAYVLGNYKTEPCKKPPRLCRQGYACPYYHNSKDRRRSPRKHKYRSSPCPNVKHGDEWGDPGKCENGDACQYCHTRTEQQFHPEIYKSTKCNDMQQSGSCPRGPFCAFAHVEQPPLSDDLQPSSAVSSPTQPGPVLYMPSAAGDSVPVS

B1: chr1:17283265:17283432:+|3pUTR|ENSG00000142619|msi1|FALSE|unique (ssRNA)
RNA: GGGAGUUCUACAGUCCGACGAUCCAUGUGGUUCUCAGACUUGAAUCUUCUCGGCCCCCCAAAAAGAAGGACCUCAUUUCUUAUAGCCUCUCCUGUGAUUCAACACAACCCAUGGAGAUGUCCCCUUCUCACUCUGAAAUCAUCCAACAGAGGAUUGAGCAUCA
B2: chr4:76435395:76435496:+|5pUTR|ENSG00000138771|msi1|FALSE|unique (ssRNA)
RNA: GGGAGUUCUACAGUCCGACGAUCUUUUCUCUCCUAAGAAACAAACUAUGAACUGAUUGUUGAAAAAAAGAAGUAAAAAGUUUUAGCACAGCUUCUCUGUCUCUUCGGGACAAGUUAGAAAAUUCUGAAGUGAGCCGAAGCAUACAACAGAGGAUUGAGCAUCA
B3: chr17:2060671:2060772:-|3pUTR|ENSG00000070366|unk|FALSE|unique (ssRNA)
RNA: GGGAGUUCUACAGUCCGACGAUCCCGUGCUCUCGGGUGGCCUCCACCUGCUCCCUCUCUCCUCACUGGCCUUUCUUUCCGUCUAGCUUCCUCUUCAGGAAAUGUCCUGACUCCCCUCAGCUCCCCCUUCACCCCUCCUUGCCCCAACAGAGGAUUGAGCAUCA
B4: chrX:130625084:130625185:-|3pUTR|ENSG00000165675|msi1|FALSE|unique (ssRNA)
RNA: GGGAGUUCUACAGUCCGACGAUCAGUUCCUUUGAAUUUGUCAGUUCAUUCCUGGAAAAUCUUUUGAGUUAAAAUAAGGAUCCUAGGACAGCACCUCGAACUACAGGCCCUAAAGAGAAAUUGCCUCAAACCACAAGUGCUGUACAACAGAGGAUUGAGCAUCA
B5: chr1:248294618:248295578:-|CDS|ENSG00000177201|control|control|control (ssRNA)
RNA: GGGAGUUCUACAGUCCGACGAUCUGGCUGUGGUGUGCAGAUCUUCUUCCUCCCCACACUGGGUGGUGGAGAGUGCUUCCUCUUAGCAGCCAUGGCCUAUGACCGCUAUGCGGCUGUCUGCCACCCACUCCGAUAUCCCACUCUCAACAGAGGAUUGAGCAUCA
B6: chr16:74449243:74449344:-|3pUTR|ENSG00000090863|msi1|total|mutant (ssRNA)
RNA: GGGAGUUCUACAGUCCGACGAUCUCUCCUAUCCUCCCAUCCUCCAGGCCUGUGGUGUGACUUCUGCCCCGAAGUUCCUACUACCGUGAGUCAUCUGGGGAGAGGCCACUGAAAAGAGGCCUUCCCUUCCCAUUUCCUCCCCUGCAACAGAGGAUUGAGCAUCA
B7: chr11:61799969:61800070:-|3pUTR|ENSG00000149485|msi1|FALSE|unique (ssRNA)
RNA: GGGAGUUCUACAGUCCGACGAUCUUCUUUGCCACCUUUUGGGUGUGGUGUCACCAGCCUGUUUAGCCAAGUAGCUUUGGGCAUAGGCUGCCCAAUCUGAGCAAACACCAGUGAGGCUCUAUUGAGCCAAGACCAAGUCCUCAACAACAGAGGAUUGAGCAUCA
B8: ENSG00000107863:be:win_5501|CDS|ENSG00000107863|bound_else_gene|NA|bound_elsewhere_windowed (ssRNA)
RNA: GGGAGUUCUACAGUCCGACGAUCCUGUAAACCGGUUAAAACCAAAAUGCUCAGCCCAGGACCUUUCCAUCUCAGACUGGCUGGCCAGGGAACGCCUACGCACCAGUACCUCUGACCUUAGCAGAGGAGAAAUCGGAGAUCCCCCAACAGAGGAUUGAGCAUCA
B9: ENSG00000106682:stop:overlap|stop_codon|ENSG00000106682|stop_codon|NA|stop_codon (ssRNA)
RNA: GGGAGUUCUACAGUCCGACGAUCCUUCCCCUGGAAGGUUCAGGAGAGUAUUUGUCGCCUGGUUGCUUUUACAUCAUGCUGAUUAGACCUGCACACCCGGGCAUGAAAUGAGUGUGAUUGCAUCAUUUUCAUAGAACCUAAUGGCAACAGAGGAUUGAGCAUCA
B10: chr15:58589816:58589917:-|3pUTR|ENSG00000137845|unk|FALSE|unique (ssRNA)
RNA: GGGAGUUCUACAGUCCGACGAUCAUUCAUUUGCUGAAGAGCUGGCUUGUACUUUGGCAGGUGUCAUACUUGGUUAUUCUCCUUAGGAUAUUGGCCCAACAAUCUGGGAGUUGUGAAAGGCGCUUCGCUUUUCAGACCUGGGCGCAACAGAGGAUUGAGCAUCA
B11: ENSG00000124766:be:win_1651|3pUTR|ENSG00000124766|bound_else_gene|NA|bound_elsewhere_windowed (ssRNA)
RNA: GGGAGUUCUACAGUCCGACGAUCUCUGCCCAGCCGGAGGGACGCGGAGGAGGAAGAGGGUAGACAGGGGCGACCUGUGAUUGUUGUUAUUGAUGUUGUUGUUGAUGGCAAAAAAAAAAAAGCGACUUCGAGUUUGCUCCCCUUCAACAGAGGAUUGAGCAUCA
B12: chr7:80742675:80742739:-|3pUTR|ENSG00000075223|msi1_unk|total|mutant (ssRNA)
RNA: GGGAGUUCUACAGUCCGACGAUCGCCGCUUGACAAUUCAGUGACUUAAUAUCUAUUCCAUUUGUAUUGUACAUAAAAUUUUCCCGAAAUACACUUUUUUCCAAAGUGUAAGUUUGUGAACCGAUUUCCGCAUGAUGAAACUGUCAACAGAGGAUUGAGCAUCA
B13: chr5:83943476:83943577:-|CDS|ENSG00000164176|msi1|total|mutant (ssRNA)
RNA: GGGAGUUCUACAGUCCGACGAUCAUAAAAAUAAUUUCAAAGAAAGAAGGCUGUGUGACUGACAUUUUUCUGCUCUUCUUUAUCCGGUUUUCCAGGGAAAUUUUGACAAUGACACUCACAGAAAAAAUGUCAUCGACCCUCCCACAACAGAGGAUUGAGCAUCA
B14: chr9:125236489:125236593:-|3pUTR|ENSG00000044574|msi1_unk|total|mutant (ssRNA)
RNA: GGGAGUUCUACAGUCCGACGAUCUGCCGACACUGAUCUGCCCGUGCUGUAAUAUUGUAAAUACUGGACUCAGGAACUUUUGUCCGGAAAAAAUUGAAAGAACUUAAGUCUCGAAUGUAAUUGGAAUCUUCACCUCAGAGUGGACAACAGAGGAUUGAGCAUCA
B15: chr12:106067485:106067586:-|CDS|ENSG00000074590|msi1|total|mutant (ssRNA)
RNA: GGGAGUUCUACAGUCCGACGAUCCCUGAAGAAGCGAAGCAACAGCGAGCAUCGCUCUCACAGCACUGGCUUCAUUGAAGGUGCCGUUGGUCCUGCCUUACCCUCUACUUUCAAGAUGGAGCAGGACUUGUGCAGGACUGGCGUCAACAGAGGAUUGAGCAUCA
B16: chr4:1716041:1716142:-|3pUTR|ENSG00000168936|msi1|FALSE|unique (ssRNA)
RNA: GGGAGUUCUACAGUCCGACGAUCAGGCUUCCUAGAGCGCUCAGCAGGUGAAGGCAGCAGGGGCCAUGGCCGGGAGCCAGGCCUAGCUUUGAACUGAGUUUCAAGGGCUGCCAAAGAGGGGCAGUGGGUUGGGGUUGUUUUUACCAACAGAGGAUUGAGCAUCA
B17: chr2:216674409:216674600:-|3pUTR|ENSG00000115461|msi1|FALSE|unique (ssRNA)
RNA: GGGAGUUCUACAGUCCGACGAUCUCAUGGCAUGACACAGCGGAGACCGCCUCCAACAACGAAUUUGGGGCUACGAAGAGGAAUAGCGAAAAAGCAAAUCUGUUUCAACUGAUGGGAACCCUAUAGCUAUAGAACUUGGGGGCUCAACAGAGGAUUGAGCAUCA
B18: chr2:135724104:135724205:+|CDS|ENSG00000048991|msi1|FALSE|unique (ssRNA)
RNA: GGGAGUUCUACAGUCCGACGAUCCAACACUGCCAACCCUGAACGCUCUAAACCCAGUGACUUGGCCUCCACCUACACCGUCUUAGCCACAUUCCCCUCCAUUUCAGCUGCACAGAAUGCACUGAAGAAACAAAUUAACUCAGUCAACAGAGGAUUGAGCAUCA
B19: chr17:63766011:63766126:-|CDS|ENSG00000108588|unk|total|mutant (ssRNA)
RNA: GGGAGUUCUACAGUCCGACGAUCGGUGUUUGGGAGUGUCUCUGAAGCCAAGUUUGAUGAUUUUGAGGAUGAGGAGGACACCGCCGAGUAUGAUGAUAAUGACUUCGCUGAAUUUGAGGAUGUCAUGGAAGACUCUGUUACUGACAACAGAGGAUUGAGCAUCA
B20: chr20:58360308:58360409:+|3pUTR|ENSG00000124209|msi1|total|mutant (ssRNA)
RNA: GGGAGUUCUACAGUCCGACGAUCCAUUGAACAUGUCCGCCCCGGAUACGUACAGUAAAUUAACAAUGACCGCAGCAGAUGCCCCGCUCAUCCUGGGUUUGCUUCUGACCUUGUCAUGUGUGUGCCACCAAACACGUUAUUGGCCAACAGAGGAUUGAGCAUCA
B21: chr12:125025615:125025697:+|3pUTR|ENSG00000184992|msi1_unk|FALSE|overlapping (ssRNA)
RNA: GGGAGUUCUACAGUCCGACGAUCGGACACAUUCCCAGAAGAGCGGAAAGAUCAUUGACGUGGAACUACACACGAAGUGUAAUUAGUGGGGGAAAAAAUAUUUUUUAAACAAAGGAUAUAACCAUAUUUAGUUGUACAGUAAGACAACAGAGGAUUGAGCAUCA
B22: chr2:190659421:190659522:+|CDS|ENSG00000138386|unk|total|mutant (ssRNA)
RNA: GGGAGUUCUACAGUCCGACGAUCAGAGACUGGGUCACAAACCCUGGGCUUUUCAAUCAGCCACUGACUUCCCUUCCUGUCAGCCGCAUACCCAUCUAUAAAUUACCAGAGGGAUCACCAACAUGGCUGGGAAUAUCCUGCAGUCAACAGAGGAUUGAGCAUCA

The other results are listed elsewhere or left out.

This assay concerns the target T1, UNK ZnF1-6 (called full-length). The assay is described as follows: nsRBNS (natural sequence RNA bind-n-seq); RBNS binding buffer (assumed for nsRBNS): 25 mM Tris pH 7.5, 150 mM KCl, 3 mM MgCl2, 0.01% Triton X-100, 500 ug/ml BSA, 20 U/ml SUPERase-In, 4 C; UNK is unkempt and MSI1 is Musashi-1; names of the RNAs are library labels; protein concentration not given here; high values mean tight binding.
In turn, B1 gave a binding signal of 0.504 enrichment R. In the case of B2, the binding signal is 0.731 enrichment R. With B3, the binding signal worked out at 1.19 enrichment R. The molecule B4 registered a binding signal of 0.5 enrichment R. In the case of B5 it was 0.604 enrichment R; in that of B6, 0.676 enrichment R; in that of B7, 0.419 enrichment R.

For B8, the binding signal was 0.673 enrichment R. As to B9, the binding signal was found to be 0.869 enrichment R. The molecule B10 displayed a binding signal of 0.853 enrichment R. B11 registered a binding signal of 0.645 enrichment R.

In turn, B12 yielded a binding signal of 0.531 enrichment R. On to B13, for which the binding signal is 0.467 enrichment R. The molecule B14 yielded a binding signal of 0.446 enrichment R.

B15 displayed a binding signal of 0.457 enrichment R. Consider B16, for which the binding signal is 1 enrichment R. In the case of B17 it was 1.65 enrichment R; in that of B18, 0.977 enrichment R; in that of B19, 0.558 enrichment R. Molecule B20 showed a binding signal of 0.483 enrichment R. B21 showed a binding signal of 1.71 enrichment R. Then B22, with 0.861 enrichment R.

The values above are taken from PMC12136788.
